Results reported in the RNAGym collection of RNA variant scans (doi:10.1093/nar/gkz1192).
The source gives no read counts; variants with many changes may rest on few reads.

B1: CPEB3 Ribozyme (parent)
chain: UAACAGGGGGCCACAGCAGAAGCGUUCACGUCGCAGCCCCUGUCAGAUUCUGGUGAAUCUGCGAAUUCUGCUGUAUAUCUC

Variants of: B1
Experiment: self-cleavage, relative activity (ratio to wild type); higher = more cleavage; in vitro, sequencing
In short: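 Relative activity was defined as the cleaved/total read fraction for a variant divided by the same fraction for the unmutated ribozyme. CPEB3 self-cleaving ribozyme libraries were made by rounds of error-prone PCR, barcoded, and transcribed in vitro with T7 RNA polymerase for 5 hours at 37°C, and cleavage ran through transcription plus a 15 min DNase I step before EDTA. Illumina sequencing of template-switched reverse transcripts gave the reads, and DNA sequencing mapped the barcodes. Averages come from three batches, using variants with at least 5 reads.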

For G24C U26A U51A U72C, which self-cleavage is on record?
The self-cleavage was 0.14.

For G22U U26A A28G, which self-cleavage is on record?
The self-cleavage was 0.26.

With G24C U26C A28G A64G U72A C79U as the variant, how does the self-cleavage read?
Its self-cleavage is 0.05.

For C23U U26C G73C U78C, which self-cleavage is on record?
Its self-cleavage is 0.22.

With G24A A28G U60A U69C A77G as the variant, how does the self-cleavage read?
The self-cleavage was 0.14.

For C23U A35G U41C U49C U67C U72A, which self-cleavage is on record?
The self-cleavage was 0.12.

For G24C G33A A35G, which self-cleavage is on record?
Its self-cleavage is 0.16.

With C23G U25C A35G U41A U43A U51G U78C as the variant, how does the self-cleavage read?
Its self-cleavage is 0.03.

Which self-cleavage does the source give for G24U C40A U49C here?
The self-cleavage was 0.16.

Which self-cleavage does the source give for G22C G24A U26C C62A here?
Its self-cleavage is 0.07.

With G24U G52C U78C as the variant, how does the self-cleavage read?
The self-cleavage was 0.21.

With A21U G55A U78C U80C as the variant, how does the self-cleavage read?
The self-cleavage was 0.14.

Which self-cleavage does the source give for C23G U31C U78C here?
The self-cleavage was 0.15.

For G22A U51G A56G, which self-cleavage is on record?
The self-cleavage was 0.09.

With G24A U31C A45U U49C A64G G70A as the variant, how does the self-cleavage read?
The self-cleavage was 0.1.

Which self-cleavage does the source give for C23A A47G C71A here?
The self-cleavage was 0.41.

Which self-cleavage does the source give for C23G U25C U51A A65G here?
Its self-cleavage is 0.19.

With G24A A47G U60A U69A as the variant, how does the self-cleavage read?
The self-cleavage was 0.2.

Which self-cleavage does the source give for A21U G24C A35G A57G here?
The self-cleavage was 0.13.

With G24C A35U U41C A77G as the variant, how does the self-cleavage read?
Its self-cleavage is 0.25.

With G24C A28U G42A A56C as the variant, how does the self-cleavage read?
Its self-cleavage is 0.13.

With G24A U26C G33A A45G U72C as the variant, how does the self-cleavage read?
Its self-cleavage is 0.08.

With G22U U26C A35G G63A as the variant, how does the self-cleavage read?
The self-cleavage was 0.08.

With G24C U26A A35G U41C U72C as the variant, how does the self-cleavage read?
Its self-cleavage is 0.13.

With C23A G30U A47G U58A U60A G63A A64G as the variant, how does the self-cleavage read?
The self-cleavage was 0.07.

For C23A U49A U60A, which self-cleavage is on record?
The self-cleavage was 0.13.

With G24U U41C A56U A75U as the variant, how does the self-cleavage read?
Its self-cleavage is 0.07.

For C23G A28G U48C, which self-cleavage is on record?
Its self-cleavage is 0.05.

For G22A U26A U74A U78C, which self-cleavage is on record?
Its self-cleavage is 0.32.

With G22A A35U C38A A56G A64U U74C as the variant, how does the self-cleavage read?
The self-cleavage was 0.1.

With G24C U43C G55A as the variant, how does the self-cleavage read?
The self-cleavage was 0.17.

For G24A C39A U51C G63A U76C, which self-cleavage is on record?
The self-cleavage was 0.07.

Which self-cleavage does the source give for A21G U31G U43A U60A here?
The self-cleavage was 0.07.

Which self-cleavage does the source give for A21G U74A A75G here?
Its self-cleavage is 0.31.

Which self-cleavage does the source give for A21G U58A U66C here?
The self-cleavage was 0.28.

With A21G U48C U60G as the variant, how does the self-cleavage read?
The self-cleavage was 0.3.

For A21G U48C U51A A56U, which self-cleavage is on record?
The self-cleavage was 0.16.

For G22A U72C U78C, which self-cleavage is on record?
The self-cleavage was 0.29.

For A21U A47U A56G, which self-cleavage is on record?
The self-cleavage was 0.17.

With C23G C32G U41C as the variant, how does the self-cleavage read?
The self-cleavage was 0.09.

For G24A U43C A45U U80A, which self-cleavage is on record?
Its self-cleavage is 0.07.

Which self-cleavage does the source give for C23A U31C A65G here?
Its self-cleavage is 0.08.

Which self-cleavage does the source give for G24A U26C U54G G61C here?
Its self-cleavage is 0.09.

For G24A G36A U43C U51A A65G, which self-cleavage is on record?
The self-cleavage was 0.08.

For C23U A57G U69C, which self-cleavage is on record?
The self-cleavage was 0.08.

With G24A A56U C59U U60A as the variant, how does the self-cleavage read?
Its self-cleavage is 0.15.

Which self-cleavage does the source give for G22U U25C A65U here?
The self-cleavage was 0.12.

Which self-cleavage does the source give for U25A A28G U41C here?
The self-cleavage was 0.09.

Which self-cleavage does the source give for G24U U31C U54C here?
The self-cleavage was 0.11.

For U25A C27U U72C, which self-cleavage is on record?
The self-cleavage was 0.27.

With A21U U26C C29A C39U A47G A77U U80A as the variant, how does the self-cleavage read?
The self-cleavage was 0.07.

With C23U U26C A57G as the variant, how does the self-cleavage read?
The self-cleavage was 0.15.

Which self-cleavage does the source give for U25A C32A U48C U60A G73C here?
Its self-cleavage is 0.21.

Which self-cleavage does the source give for G22C U41A U51C U80C here?
Its self-cleavage is 0.09.

With G22A U49C U51C U69A U78G as the variant, how does the self-cleavage read?
Its self-cleavage is 0.05.

With C23G U41C U60C U72C as the variant, how does the self-cleavage read?
The self-cleavage was 0.18.

With C23U U26C A35G U72C as the variant, how does the self-cleavage read?
The self-cleavage was 0.18.

Which self-cleavage does the source give for A21U U31C A45U U51A A64G here?
Its self-cleavage is 0.06.

With A21U U49A U51C U58C as the variant, how does the self-cleavage read?
The self-cleavage was 0.13.

For G24C U26C A35G U49C U76C, which self-cleavage is on record?
Its self-cleavage is 0.07.

With G24C C40A A75G U78C as the variant, how does the self-cleavage read?
The self-cleavage was 0.07.

With C23U U31C C40U U49C G61A G63A as the variant, how does the self-cleavage read?
Its self-cleavage is 0.07.

With C23A U25C U43C A57G A64U as the variant, how does the self-cleavage read?
The self-cleavage was 0.3.

With A21U G55A U69G as the variant, how does the self-cleavage read?
The self-cleavage was 0.1.

With U25A A57G U60A U69A as the variant, how does the self-cleavage read?
Its self-cleavage is 0.12.

With A21U A28G U31C A65U U80A as the variant, how does the self-cleavage read?
The self-cleavage was 0.1.

With A21U U25A A35G as the variant, how does the self-cleavage read?
The self-cleavage was 0.2.

Which self-cleavage does the source give for G24C A65G U69C here?
Its self-cleavage is 0.2.

For A21U U43C A45C U67C G70A, which self-cleavage is on record?
Its self-cleavage is 0.14.

Which self-cleavage does the source give for C23A G30A U43C here?
Its self-cleavage is 0.13.

Which self-cleavage does the source give for A21G U41A A56U A57G U67C here?
The self-cleavage was 0.13.

With A21G U31C U41A U54C as the variant, how does the self-cleavage read?
Its self-cleavage is 0.13.

For C23U A35U U51C A57G U69G U72C, which self-cleavage is on record?
Its self-cleavage is 0.06.

Which self-cleavage does the source give for G24C U60G U66A here?
Its self-cleavage is 0.47.

Which self-cleavage does the source give for U25A C62G U67C U69A here?
The self-cleavage was 0.35.

With A21U C62G U67C as the variant, how does the self-cleavage read?
Its self-cleavage is 0.36.

For G22U C32A A45U U60C U72A, which self-cleavage is on record?
Its self-cleavage is 0.06.

With A21U U41A U72C as the variant, how does the self-cleavage read?
The self-cleavage was 0.44.

Which self-cleavage does the source give for C23U U43C A45U U51C U78C here?
Its self-cleavage is 0.11.

With A21U C39U A64G as the variant, how does the self-cleavage read?
The self-cleavage was 0.1.

For A21U U74A A77C, which self-cleavage is on record?
Its self-cleavage is 0.77.

With G24A U25C U26C C29U A35G A65G as the variant, how does the self-cleavage read?
The self-cleavage was 0.14.

Which self-cleavage does the source give for A21U G24A U41C A47G A56C here?
Its self-cleavage is 0.07.

With C23U U51A U72A as the variant, how does the self-cleavage read?
Its self-cleavage is 0.11.
